Test results from PubChem BioAssay AID1963576 (National Center for Advancing Translational Sciences (NCATS), 2024).
The whole screen tested about 46,000 compounds, of which about 60 (0.1%) were called active. Roughly 3% stayed inconclusive and do not appear here. Calls come from the whole dose curve; as a rule, active = well fitted inhibition curve with a large enough effect; inconclusive = small, poorly fitted or top-dose-only effect; inactive = no such curve, though single readings can be large or run the other way. The list shows a part of the results.

Assay: Primary qHTS assay for Inhibitors of ovarian cancer metastasis using an organotypic tumor microenvironment (TME) model.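 For activity change, negative = inhibition: plate controls were DMSO wells for no effect and tomatine positive control wells for full effect.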 Note: nearly all actives have a fitted effect of over 65% in size.
Conditions: SKOV3ip1-GFP adhesion/invasion on 3D omental model, fluorescence; series mostly up to 45.8 µM; activity change, negative = inhibition: at the top concentration
How it was run: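 Primary human omental fibroblast/mesothelial 3D culture pre-formed 48 h. SKOV3ip1-GFP cells added with compounds (0.36-46 umol/L), incubated 2 h RT/16 h 37 C, fixed; GFP cells quantified at 488/509 nm.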

Activity change, negative = inhibition, inactive:
O=C(NCc1ccccc1)C(=O)Nc1ccc2nc3n(c(=O)c2c1)CCCCC3 2.11%
Cc1nnc(NC(=O)c2nc(SCc3ccccc3F)ncc2Cl)s1 0.94%
CC(NC(=O)Cc1ccc(NC(=O)N2CCSc3ncccc32)cc1)c1ccccc1 (stereo not given) 10.7%
Cc1cc(-c2ccc(S(=O)(=O)Nc3ccccc3F)s2)on1 -8.73%
Cn1c(-n2cccc2)c(-c2c(-c3ccccc3)[nH]c3c2c(=O)[nH]c(=O)n3C)c(=O)[nH]c1=O 3.62%
CC(=O)Nc1ccc(NC(=O)CSc2nc3ccccc3nc2N2CCCCC2)cc1 -5.02%
COc1ccc(C(=O)Nc2cc(C)c(O)c(-c3nc4ccccc4s3)c2)cc1OC 45.6%
O=C(Nc1cccc(-c2cn3cccnc3n2)c1)c1cc(Br)ccc1Cl 3.62%
CCOC(=O)c1[nH]c(C)c(C(=O)NC(CC)Cc2ccccc2)c1C (stereo not given) -6.17%
CCN(Cc1ccccc1)C(=O)CN1C(=O)COc2ccc(S(=O)(=O)NC3CCCC3)cc21 1.62%
CCOc1ccc(CNC(=O)c2ccc(CS(=O)Cc3ccc(Cl)cc3)o2)cc1 (stereo not given) 11.5%
CCOC(=O)CSc1nc2sc3c(c2c(=O)n1-c1ccccc1)CC(C(C)C)OC3 (stereo not given) 0.0934%
Cc1oc(=O)oc1CN1CCN(c2cc3c(cc2F)c(=O)c(C(=O)O)c2n3C(C)S2)CC1 (stereo not given) -11.2%
COc1cccc(CNC(=O)c2ccc3c(c2)nc2n3CCOC2)c1 -3.06%
O=C(NCCc1ccccc1)c1ccc(CSc2nc3ccncc3n2Cc2ccc(F)cc2)cc1 0.261%
CCc1ccc2oc(C(=O)Nc3sc4c(c3C(=O)NC)CCCC4)cc(=O)c2c1 1.94%
O=C(Nc1ccc(Cl)cc1F)c1cc(S(=O)(=O)NCc2ccc3c(c2)OCO3)ccc1F -7.83%
CCCCOC(=O)c1cccc(NC(=O)c2cc3ccccc3o2)c1 -25.1%
CCOc1ccc(C(=O)Nc2cccc(OCc3cc(=O)n4cc(C)sc4n3)c2)cc1 4.31%
O=[N+]([O-])c1ccc(C(c2sc3nc(-c4ccco4)nn3c2O)N2CCN(c3cccc(Cl)c3)CC2)cc1 (stereo not given) 0.737%
CCOC(=O)c1cc2c(=O)n3ccccc3nc2n(CC2CCCO2)c1=NC(=O)c1ccc(C)cc1 (stereo not given) -9.4%
COc1ccc(-c2nc3ccccc3o2)cc1NC(=O)COc1ccc(C(C)(C)C)cc1 -5.06%
COc1cccc(N2CC(NC(=O)c3ccc(S(=O)(=O)N4CCCCC4)cc3)CC2=O)c1 (stereo not given) 0.851%
CCOc1ccc(S(=O)(=O)NCC(c2ccco2)S(=O)(=O)c2ccc(F)cc2)cc1 (stereo not given) 1.48%
Cc1ccccc1OC(=O)CSc1nnc(-c2cccs2)o1 3.05%
CC(Oc1ccccc1Cl)C(=O)N1CCN(CCc2ccccn2)CC1 (stereo not given) -15.3%
COc1cc(NC(=O)c2cc3c(=O)n(Cc4cccs4)ccc3nc2C)cc(OC)c1OC 1.42%
O=c1cc(CSc2n[nH]c(-c3ccccc3)n2)[nH]c2ccccc12 -4.03%
COc1ccccc1NC(=O)CSc1oc(-c2cccs2)nc1S(=O)(=O)c1ccccc1 2.69%
Cc1ccc(CN2C(=O)C3(c4ccccc42)N(c2cccc(C(F)(F)F)c2)C(=O)CS3(=O)=O)cc1 (stereo not given) -7.77%
Cc1nnc(NCc2ccccc2)c2c1nnn2Cc1ccc(F)cc1 1.9%
N=C(N=C(N)N)N1CCOCC1 -2.53%
CCc1cccc(NC(=O)Cn2nc(-c3cc(C)ccc3C)ccc2=O)c1 -4.1%
O=C(NC1CCCCC1)c1ccc2c(c1)N(Cc1ccc(Cl)cc1)C(=O)c1ccccc1S2(=O)=O 7.07%
CC(Sc1nc(=O)cc(N)n1CCc1ccccc1)C(=O)Nc1ccccc1C#N (stereo not given) 7.28%
Cc1ccc(C)c(N2CCN(C3=C(c4ccccc4)C(=O)c4ccccc43)CC2)c1 -7.72%
CC(=O)c1cccc(NS(=O)(=O)c2ccc3c(c2)NC(=O)CC(=O)N3)c1 -9.03%
Cc1ccc(Cl)cc1NC(=O)Cn1c(=O)n(Cc2ccc(C(=O)NCc3ccc4c(c3)OCO4)cc2)c(=O)c2ccccc21 18.7%
CCN(Cc1ccccc1)C(=O)c1cc2c(s1)-c1c(C)cccc1OC2 11.7%
CC(=O)N1c2c(cc(Br)cc2S(=O)(=O)N2CCN(c3cccc(Cl)c3)CC2)CC1C (stereo not given) 26.2%
COc1cccc(N2CCN(C(=O)c3cnn(-c4ccc(C)cc4C)c3C3CCN(C(=O)OC(C)(C)C)CC3)CC2)c1 3.62%
CCOc1ccc(-c2csc(/C(C#N)=C/c3ccc(Br)cc3)n2)cc1 7.48%
Cc1nn(CC(=O)Nc2ccccc2F)c(=O)c2c(C)n(-c3ccc(Cl)cc3)nc12 -25.4%
O=c1c2cnn(-c3ccc(Cl)cc3)c2ncn1Cc1cccc(C(F)(F)F)c1 -0.71%
CCN1CCN(c2c(S(=O)(=O)c3ccc(C)c(C)c3)cnc3ccc(F)cc23)CC1 -7.3%

outcome, inactive:
COc1ccccc1NC(=O)CN1C(=O)C2(SCC(=O)N2c2ccc(F)c(F)c2)c2ccccc21 (stereo not given)
CCCOc1ccc(C(=O)Nc2ccc(NC(=O)c3ccccc3)c(Br)c2)cc1
Cc1ccc2c(c1)N(CC(=O)NCCc1ccc(Cl)cc1)C(=O)c1cccnc1O2
Cc1ccc(C)c(NC(=O)Cn2c(=O)n(CC3CCCO3)c(=O)c3ccccc32)c1 (stereo not given)
O=C(CN1C(=O)COc2ccc(S(=O)(=O)NC3CCCC3)cc21)Nc1ccc(Cl)cc1
Cc1ccc(-c2nnn3c2nc(NCC(C)c2ccccc2)c2ccccc23)cc1 (stereo not given)
CCCCn1cc(S(=O)(=O)c2cccc(C)c2)c(=O)c2cc(F)c(N3CCOCC3)cc21
CN(C)CCn1c2c(c(SCC(=O)Nc3ccc(F)cc3F)nc1=O)CCC2
COc1cccc(CNCCSc2nnnn2C)c1OCc1ccccc1F
CCOC(=O)c1c(S(=O)(=O)N2CCCC(C(=O)N3CCN(c4ccccc4)CC3)C2)c(C)n(C)c1C (stereo not given)
Cc1ccc(C)c(Cn2nc(-c3cc(C)ccc3C)ccc2=O)c1
COc1ccc(OC)c(NC(=O)CN2C(=O)CCc3cc(S(=O)(=O)N4CCCCC4)ccc32)c1
O=C(CN1C(=O)COc2ccc(S(=O)(=O)N3CCOCC3)cc21)N1CCN(c2ccc(F)cc2)CC1
COc1ccc(NC(=O)CSc2cc(-c3ccccc3)nc(C)n2)cc1
Cc1ccc(-n2c(SCC(=O)Nc3cccc(C)c3)nc3c(oc4ccccc43)c2=O)cc1
